The other results are listed elsewhere or left out. Each Rep nickase domain was tested in vitro on the same pool of single strands (3 µM enzyme, 1 h, 37 °C); shown is the middle of each 90-letter strand. A value is the log2 ratio of uncut reads to the pool without enzyme; the lower, the more was cut; hits are not called. Reads are scaled to the total; uncut strands gain when others are lost, and binding without cutting may add a little.
Key:
Assay in all cases: uncleaved DNA left, log2 of reads against the no-enzyme library (log2 ratio); higher = less cleavage (more negative = more Rep cleavage of the k-mer); sequences stand for … in CTCGTCCG…ACCGGAGA
[1] = system: T1, Rep nickase domain of Muscovy duck circovirus
T1 sequence (residues 1-111 of Rep, tag left off): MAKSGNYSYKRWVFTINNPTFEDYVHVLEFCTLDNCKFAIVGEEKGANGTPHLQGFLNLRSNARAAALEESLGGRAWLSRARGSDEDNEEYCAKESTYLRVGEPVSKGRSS
Protocol: (§1)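 A pool of 90-nt single-stranded DNAs with seven random bases just before the constant AC of the nick site (name = the seven bases) was cut by 3 µM recombinant His6-SUMO-tagged Rep nickase domain (300 nM DNA, 50 mM HEPES pH 8.0, 50 mM NaCl, 1 mM MnCl2, 1 h, 37 °C, three replicates). Uncut DNA was amplified and sequenced.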

[2] = system: T2, Rep nickase domain of banana bunchy top virus
T2 sequence (residues 1-94 of Rep, tag left off): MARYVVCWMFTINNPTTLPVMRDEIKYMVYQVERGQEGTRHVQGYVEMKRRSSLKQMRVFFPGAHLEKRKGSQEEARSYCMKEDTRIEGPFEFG
Protocol: as §1

[3] = system: T3, Rep nickase domain of cabbage leaf curl virus
T3 sequence (residues 1-116 of Rep, tag left off): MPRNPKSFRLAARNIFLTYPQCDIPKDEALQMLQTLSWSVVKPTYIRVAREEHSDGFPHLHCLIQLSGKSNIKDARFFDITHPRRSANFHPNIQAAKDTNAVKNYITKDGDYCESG
Protocol: as §1

[4] = system: T4, Rep nickase domain of chickpea chlorotic dwarf virus
T4 sequence (residues 1-124 of Rep, tag left off): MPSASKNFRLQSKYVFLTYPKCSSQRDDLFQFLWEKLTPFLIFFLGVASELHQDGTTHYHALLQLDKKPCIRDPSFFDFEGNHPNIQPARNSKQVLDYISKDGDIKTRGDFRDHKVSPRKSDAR
Protocol: as §1

[5] = system: T5, Rep nickase domain of faba bean necrotic yellows virus
T5 sequence (residues 1-98 of Rep, tag left off): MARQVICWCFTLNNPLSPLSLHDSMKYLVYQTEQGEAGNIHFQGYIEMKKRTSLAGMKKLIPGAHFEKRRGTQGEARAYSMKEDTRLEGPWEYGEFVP
Protocol: as §1

[6] = system: T6, Rep nickase domain of maize striate mosaic virus
T6 sequence (residues 1-117 of Rep, tag left off): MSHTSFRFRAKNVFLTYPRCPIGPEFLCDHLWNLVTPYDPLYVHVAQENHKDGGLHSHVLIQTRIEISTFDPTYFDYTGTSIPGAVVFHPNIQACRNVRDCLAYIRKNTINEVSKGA
Protocol: as §1

[7] = system: T7, Rep nickase domain of porcine circovirus 2
T7 sequence (residues 2-116 of Rep, tag left off): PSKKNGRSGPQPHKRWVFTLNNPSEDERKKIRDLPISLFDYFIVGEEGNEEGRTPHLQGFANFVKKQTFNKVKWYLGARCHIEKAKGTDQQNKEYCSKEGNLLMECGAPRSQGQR
Protocol: as §1

[8] = system: T8, Rep nickase domain of tomato golden mosaic virus
T8 sequence (residues 1-124 of Rep, tag left off): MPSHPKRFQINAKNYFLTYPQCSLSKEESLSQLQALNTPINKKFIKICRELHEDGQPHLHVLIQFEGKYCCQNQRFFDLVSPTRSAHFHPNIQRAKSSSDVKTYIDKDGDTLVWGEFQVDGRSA
Protocol: as §1

[9] = system: T9, Rep nickase domain of tomato yellow leaf curl virus
T9 sequence (residues 1-136 of Rep, tag left off): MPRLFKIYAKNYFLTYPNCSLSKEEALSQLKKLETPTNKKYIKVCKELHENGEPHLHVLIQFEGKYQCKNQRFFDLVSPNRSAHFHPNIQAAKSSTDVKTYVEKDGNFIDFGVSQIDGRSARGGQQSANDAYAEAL
Protocol: as §1

[10] = system: T10, Rep nickase domain of wheat dwarf virus
T10 sequence (residues 1-137 of Rep, tag left off): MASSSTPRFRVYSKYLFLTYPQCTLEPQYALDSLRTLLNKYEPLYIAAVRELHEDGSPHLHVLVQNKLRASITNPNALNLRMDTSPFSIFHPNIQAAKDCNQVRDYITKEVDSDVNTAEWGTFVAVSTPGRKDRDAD
Protocol: as §1

Sequence	uncleaved DNA left (log2) [1]	uncleaved DNA left (log2) [2]	uncleaved DNA left (log2) [3]	uncleaved DNA left (log2) [4]	uncleaved DNA left (log2) [5]	uncleaved DNA left (log2) [6]	uncleaved DNA left (log2) [7]	uncleaved DNA left (log2) [8]	uncleaved DNA left (log2) [9]	uncleaved DNA left (log2) [10]
GATCCCG	0.013	-0.0535	-0.747	-0.72	-0.00329	-0.968	-0.171	-0.082	-0.106	-0.131
CCGATCG	-0.0813	-0.11	-0.827	-0.152	0.0163	-0.877	0.123	-0.188	-0.144	-0.105
AAGTGGG	-0.0144	0.0466	-0.639	-0.577	0.0814	-1.03	0.0955	0.0629	0.102	-0.0754
GTATAAC	0.112	0.0374	0.242	0.6	0.111	1.58	0.0902	0.104	0.00967	0.153
TCTGGGG	0.0458	-0.202	0.232	0.293	-0.155	0.111	0.187	0.134	-0.0222	-0.0391
AGGCCGA	-0.0541	-0.0546	0.00707	0.134	-0.00337	-0.34	-0.000412	0.0173	-0.15	-0.0481
CTTGGCC	-0.00458	-0.0156	-0.298	-0.534	-0.074	-0.801	-0.0908	-0.0983	-0.0429	-0.0491
CCCGGAC	-0.127	-0.162	0.341	0.984	-0.21	1.21	-0.0818	-0.0889	-0.22	-0.179
TGAGGGT	-0.0297	0.0959	0.233	1.55	-0.0288	1.84	0.263	0.0576	-0.115	-0.0211
AACGGAG	0.124	0.0788	0.014	0.674	-0.0095	0.038	0.204	0.0706	0.0376	0.116
TCCCCCA	-0.102	-0.128	0.11	-1.02	-0.0367	-0.397	-0.459	-0.266	-0.0881	-0.0867
AGAAATG	-0.0108	0.0973	-0.0911	0.338	-0.0373	0.573	0.18	0.066	-0.051	0.108
TGAGATC	0.0348	-0.0966	0.319	0.502	0.097	0.509	0.19	0.00827	-0.0154	0.0482
TGACAGA	0.0588	0.05	0.554	1.14	0.122	1.43	0.178	0.0151	0.0397	0.147
CCTTCAC	-0.00644	-0.0865	-0.127	-0.567	-0.167	-0.824	0.0191	-0.0202	-0.149	0.00737
ATCTTAC	-1.02	-0.0403	-0.548	-2.31	0.0134	-1.06	-0.651	-0.128	-0.144	-0.197

Sequence	uncleaved DNA left (log2) [1]	uncleaved DNA left (log2) [2]	uncleaved DNA left (log2) [3]	uncleaved DNA left (log2) [4]	uncleaved DNA left (log2) [5]	uncleaved DNA left (log2) [6]	uncleaved DNA left (log2) [7]	uncleaved DNA left (log2) [8]	uncleaved DNA left (log2) [9]	uncleaved DNA left (log2) [10]
GTAGAGG	-0.029	-0.0407	0.366	1.05	0.00872	1.15	-0.059	-0.0258	-0.0308	0.049
ATGACTG	0.0127	-0.0639	0.0621	0.723	-0.0172	1.68	0.14	0.0776	-0.0694	0.0295
GTCATAC	-0.0556	-0.0857	0.211	0.734	-0.113	1.46	-0.116	-0.081	-0.0343	-0.0661
TCAGTAA	0.0564	0.119	0.178	-0.209	0.146	-0.199	0.081	0.149	0.0354	-0.0174
TTCTTTA	0.0438	0.0584	0.191	-0.795	0.188	0.161	-0.212	0.222	0.011	0.0512
AGCCGTA	0.0193	-0.0133	-0.0899	-0.193	-0.0655	0.134	-0.304	-0.0471	-0.212	-0.118
GCTTTCT	-0.653	-0.0976	-0.00418	-0.946	-0.153	-0.0192	-1.12	-0.0602	0.0277	-0.0466
AGCCGCG	0.117	0.148	-0.562	0.566	0.0714	-0.443	0.229	0.14	0.153	0.0738
CTCGTCT	0.0196	-0.0306	-0.0734	-1.75	0.0795	-0.552	-0.326	0.148	-0.0567	-0.0577
TCCATAC	0.00847	-0.094	-0.0547	-0.734	-0.0295	-0.911	0.0644	-0.0361	-0.0094	-0.112
CGATTAC	0.00104	-0.121	-0.22	-1.4	-0.0966	-0.702	-0.0717	-0.143	-0.106	-0.0754
TTGGTGG	0.238	0.114	0.237	0.363	0.222	0.0753	0.31	0.148	0.0613	0.12
TTTACTC	-0.05	-0.0611	0.0668	-2.03	-0.0797	-0.161	-0.0355	-0.0973	-0.0333	-0.0678
AAAATTT	-0.325	-0.307	-3.76	-3.48	0.0656	-2.17	-3.56	-1.74	-0.0276	-3.47
CCCCTAT	0.0336	-0.00293	0.0807	-0.871	0.0425	-0.288	-0.0976	0.0724	-0.127	-0.0975

Reference: the supplement of paper PMC7826260
